Data reported in PubChem BioAssay AID463173 (ICCB-Longwood Screening Facility, Harvard Medical School, 2010).
Among all 52,000 compounds or so, about 4,300 (8.3%) were called active. Cut-off read from the data, not from the text of the source: active = survival mostly below about 52% (no sharp cut-off); inactive = mostly above about 56%. The list shows a part of the results.

What follows are compounds tested on DeltatarO mutant (assay: S. aureus survival, RN4220 and DeltatarO strains – OD600, teichoic acid synthesis inhibitors, primary screen (AID 463173)). Details: S. aureus RN4220 wild type/DeltatarO growth, OD600, 18 h, active compounds read low, screened at 18.75 µg/mL (by protocol).

Row | Structure (SMILES) | survival
1 | Cc1cc(N2CCC(C(=O)Nc3ccccc3Cl)CC2)n2nc(C)c(-c3ccc(Cl)cc3)c2n1 | inactive: 81%
2 | Cc1ccc2occ(CC(=O)Nc3ccc(Cl)c(C(F)(F)F)c3)c2c1 | inactive: 48%
3 | Cc1nc(N2CCCC2)ncc1C(=O)NCc1ccc(F)cc1 | inactive: 89%
4 | Cc1cn2c(=O)c(S(=O)(=O)Nc3ccc(N4CCOCC4)cc3)c(C)nc2s1 | inactive: 60%
5 | COCCNC(=O)c1cnn(-c2cccc(C)c2)c1-n1cccc1 | inactive: 102%
6 | CC1CCN(S(=O)(=O)c2cc(C(=O)NCc3ccccc3)n(C)c2)CC1 | inactive: 79%
7 | COc1cc2ncc3c(-c4ccccc4)nn(CC(=O)NC4CCCCC4)c3c2cc1OC | inactive: 92%
8 | COc1ccccc1CNC(=O)c1ccc(-n2c(C)cc3c2CCCC3)cc1 | inactive: 87%
9 | COc1ccc(Cl)cc1NC(=O)c1cnc(N2CCCCC2)c2ccccc12 | inactive: 78%
10 | Cc1c(Cl)cccc1NS(=O)(=O)c1ccc(NS(=O)(=O)c2ccc3c(c2)OCCO3)cc1 | active: 13%
11 | CCOC(=O)Cn1c(=O)oc2cc(S(=O)(=O)NC(C)c3ccccc3)ccc21 (configuration not stated) | inactive: 66%
12 | C=C(C)CN1N=C(C(C)(C)C)CC1=O | inactive: 93%
13 | CCc1ccc(CN(C(=O)Nc2cccc(Cl)c2)c2ccccn2)cc1 | inactive: 94%
14 | COC(=O)c1nc2n(n1)C(c1cc(OC)ccc1OC)C=C(c1ccc(Br)cc1)N2 (configuration not stated) | inactive: 84%
15 | CCOC(=O)N1CCN(C(=O)c2ccc3c(c2)N(Cc2cccc(Cl)c2)C(=O)c2ccccc2S3=O)CC1 (configuration not stated) | inactive: 102%
16 | CC(=O)c1ccc(C(=O)N(Cc2cccnc2)c2nc3c(C)c(C)ccc3s2)cc1 | active: -1%
17 | O=C1CN(C(=O)COc2ccc(Cl)cc2)C(c2ccc(F)cc2)c2cc(Cl)ccc2N1 (configuration not stated) | inactive: 45%
18 | Cc1ccc(-c2nc3ccccn3c2Nc2ccc3c(c2)OCCO3)o1 | inactive: 45%
19 | O=C(Nc1ccc(Br)cc1)C1CCN(c2ncccn2)CC1 | inactive: 67%
20 | COc1cc(NC(=O)C(=O)Nc2ccc3nc4n(c(=O)c3c2)CCCCC4)cc(OC)c1OC | inactive: 85%
21 | COC(=O)CNc1ccc(C)c(C)c1 | inactive: 67%
22 | CCOc1ccc(NC(=O)C2CCN(S(=O)(=O)c3c(C)noc3/C=C/c3ccco3)CC2)cc1 | inactive: 70%
23 | CCOC(=O)c1ccccc1NC(=O)N1CC(C)Oc2ccc(C)cc21 (configuration not stated) | inactive: 50%

Row | Structure (SMILES) | survival
24 | CCOc1ccc(NC(=O)CCn2cccn2)cc1 | inactive: 73%
25 | CCCCOC(=O)/C(C#N)=C\c1ccc(-c2ccc(Cl)cc2)o1 | inactive: 71%
26 | CC(C)c1ccc(NC(=O)CN2C(=O)CSc3ccc(S(=O)(=O)N4CCCC4)cc32)cc1 | inactive: 83%
27 | Cc1ccc(-c2nc(S(=O)(=O)c3ccccc3)c(SCC(=O)NC3CCCCC3)o2)cc1 | active: 43%
28 | CC(C)CC(NC(=O)C1CCCCC1)C(=O)Nc1cccc(C(F)(F)F)c1 (configuration not stated) | inactive: 70%
29 | COc1ccccc1N1CCN(S(=O)(=O)CCNC(=O)COc2ccccc2F)CC1 | inactive: 83%
30 | Cc1ccc(CNc2ncccc2-c2nc(-c3ccc(Cl)cc3)no2)cc1 | inactive: 78%
31 | O=C(CCCn1c(=O)c2sccc2n(Cc2ccc(Cl)cc2)c1=O)NCc1ccc2c(c1)OCO2 | inactive: 58%
32 | COc1ccc(Br)cc1CNC(=O)CCc1cn(Cc2ccc(C)cc2)c2ccccc12 | inactive: 76%
33 | CCOC(=O)c1ccccc1NC(=O)c1cc2c(s1)-c1ccccc1SC2 | inactive: 54%
34 | COC(=O)c1sccc1S(=O)(=O)N1CCN(c2ccc(Cl)cc2)CC1 | inactive: 80%
35 | Cc1scc(CN2CCN(c3ccc(F)cc3)CC2)c1C | inactive: 64%
36 | Cc1cccc(N2CCN(C(=O)c3cccn3-c3nnc(N4CCCCC4)s3)CC2)c1C | inactive: 72%
37 | CCc1ccc(NC(=O)c2ccc(NS(=O)(=O)c3c(C)noc3C)cc2)cc1 | inactive: 48%
38 | CCc1cccc(C)c1NC(=O)c1cc(S(=O)(=O)N2CCCCCC2)cn1C | inactive: 83%
39 | Cc1ccc(Cl)cc1N1CCN(C(=O)c2nn(C)c3c2CS(=O)(=O)c2ccccc2-3)CC1 | active: 58%
40 | CCS(=O)(=O)N(CC(=O)Nc1sc(C)c(C)c1C(N)=O)Cc1ccc(F)cc1 | inactive: 53%
41 | COc1ccc(CCNC(=O)CCc2cn(Cc3ccc(F)cc3)c3ccccc23)cc1OC | inactive: 102%
42 | Cc1ccc(Cl)cc1NC(=O)c1cc(CN2CCCC2)on1 | inactive: 95%
43 | CCc1ccc(Nc2nnc(-c3cc4cc(OC)ccc4oc3=O)s2)cc1 | inactive: 90%
44 | Cc1ccc(NC(=O)c2c(C)oc3ccc(O)c(CN(C)Cc4ccccc4)c23)c(C)c1 | inactive: 73%
45 | CCCn1nnc(NC(=O)Cc2ccccc2)n1 | inactive: 96%
46 | COc1ccc(OC)c(CNc2ncnc3c2nc2n3CCCC2)c1 | inactive: 86%

Row | Structure (SMILES) | survival
47 | CCN(C(=O)Cc1c(C(=O)O)c(C)cn1C)c1cccc(Cl)c1 | inactive: 89%
48 | CCc1c(C)nc(SCc2nc(-c3ccccc3C)no2)[nH]c1=O | inactive: 83%
49 | O=C(COc1ccc(F)cc1)Nc1ccc(S(=O)(=O)N(Cc2ccccc2)c2ccccc2)cc1 | inactive: 102%
50 | CCc1ccc(CNC(=O)c2sc3nc[nH]c(=O)c3c2C)cc1 | inactive: 82%
51 | CCCNc1ncnc2c1c(-c1ccccc1)cn2-c1ccc(OCC)cc1 | inactive: 73%
52 | COc1ccc(NC(=O)CCn2c(-c3ccc(F)cc3)cc(C(C)=O)c2C)c(OC)c1 | inactive: 124%
53 | O=c1cc(CSc2ccccc2)[nH]c2ccc(F)cc12 | inactive: 90%
54 | CCn1c(NC(C)=O)nc2ccccc21 | inactive: 85%
55 | COC(=O)CSc1nnc(CNc2ccc(Cl)cc2)n1Cc1ccccc1 | inactive: 61%
56 | CCCOc1ccc(C(=O)Nc2ccc(-c3cc4ccccc4oc3=O)c(C)c2)cc1 | inactive: 71%
57 | Cc1ccccc1C(=O)Nc1nnc(S(=O)(=O)N(C)c2ccc(Cl)cc2)s1 | active: 30%
58 | Cn1ncc(Cl)c1C(=O)NC(=S)Nc1sc2c(c1C#N)CCCC2 | inactive: 61%
59 | COC(=O)c1sccc1S(=O)(=O)N(CC(=O)Nc1ccc(C)c(F)c1)c1ccc(C)c(C)c1 | active: 17%
60 | NC1=NC2=C(CCCC2)C2(CCCCC2)S1 | inactive: 88%
61 | Cc1ccccc1Cn1c(=O)n(CCc2ccccc2)c(=O)c2sc3ccccc3c21 | inactive: 73%
62 | CCOc1ccc(S(=O)(=O)c2c(C(=O)c3ccc(C)c(C)c3)cnc3ccccc23)cc1 | inactive: 80%
63 | Cc1ccc(CNC(=O)CCc2nnc3n(C)c(=O)c4sccc4n23)cc1 | inactive: 53%
64 | Cc1ccc(NC(=O)c2sc3nc(-c4ccncc4)ccc3c2N)cc1 | inactive: 131%
65 | CCOc1ccc2nc(NCCNC(=O)Nc3cccc(Cl)c3)c(C#N)cc2c1 | inactive: 82%
66 | CNC(=O)Cn1cc(S(=O)(=O)Cc2ccccc2F)c2ccccc21 | inactive: 93%
67 | Cc1nn(-c2ccccc2)c(-c2ccccc2)c1C(=O)O | inactive: 78%
68 | CCOc1ccc(CCNC(=O)c2cnc3sc(N4CCC(C)CC4)nn3c2=O)cc1 | inactive: 84%
69 | COC(=O)c1c(-c2cccs2)csc1NC(=O)COc1c(C)ccc(C)c1C | inactive: 70%

Row | Structure (SMILES) | survival
70 | COc1ccc(-c2oc3ncn4nc(COc5c(C)cccc5C)nc4c3c2-c2ccc(OC)cc2)cc1 | inactive: 57%
71 | Cc1nn(C(=O)c2ccccc2F)c(C)c1S(=O)(=O)N1CCCCCC1 | inactive: 83%
72 | CCOc1ccccc1NC(=O)N1CCc2cc(S(=O)(=O)N3CCC(C)CC3)ccc21 | inactive: 69%
73 | Cc1cc(Br)ccc1NC(=O)C1CCN(S(=O)(=O)c2cccc3nsnc23)CC1 | inactive: 115%
74 | Cc1ccccc1-c1nnc(CN2CCN(c3ccccn3)CC2)o1 | inactive: 120%
75 | COc1ccc(-c2noc(-c3ccc(N4CCN(C)CC4)c([N+](=O)[O-])c3)n2)cc1OC | inactive: 50%
76 | CCOC(=O)c1ccc(NC(=O)N2CCOc3ccccc32)cc1 | inactive: 71%
77 | COCCCNC(=O)C(=O)Nc1c2c(nn1-c1cccc(Cl)c1)CSC2 | inactive: 79%
78 | Cc1cc(C)c(CO)c(C)c1CO | inactive: 100%
79 | CCCOC(=O)CSc1ncnc2sc3c(c12)CCC(C)C3 (configuration not stated) | active: 7%
80 | COc1ccc(-c2cc(C)no2)cc1S(=O)(=O)NC(C)C | inactive: 75%
81 | Cc1cc(C)c(C#N)c(SCC(=O)Nc2sc3c(c2C#N)CCC(C(C)(C)C)C3)n1 (configuration not stated) | inactive: 75%
82 | COc1ccc(-c2noc(Cn3c(=O)c4ccccc4n(CC(=O)Nc4cccc(OC)c4)c3=O)n2)cc1 | inactive: 87%
83 | COc1ccc(CN2CCc3nc(SCC(=O)Nc4cc(C)cc(C)c4)[nH]c(=O)c3C2)cc1 | inactive: 74%
84 | COc1cc(OC)cc(N2C(=O)N(CC(=O)c3ccc(F)cc3)c3ccccc3S2(=O)=O)c1 | inactive: 86%
85 | Cn1nnnc1SCCCNCc1ccccc1OCc1ccccc1Cl | inactive: 110%
86 | COc1ccccc1NC(=O)c1sc2nc(N3CCOCC3)c3c(c2c1N)CC(C)(C)OC3 | inactive: 74%
87 | Cc1ccc(NC(=O)CSc2ncc3c(n2)-c2ccc(Cl)cc2N(C)S3(=O)=O)cc1F | inactive: 69%
88 | C=CCN1C(=O)C(CC(=O)NCC)SC1=Nc1ccccc1OC (configuration not stated) | inactive: 91%
89 | Cc1ccc(Cn2c(SCc3ccc(C(=O)N4CCCCCC4)cc3)nc3ccncc32)cc1 | inactive: 71%
90 | Cc1cccc(NC(=O)c2sc(-n3nc(C)c(Cc4ccc5c(c4)OCO5)c3C)nc2C)c1C | inactive: 105%
91 | CCCCOC(=O)c1ccc(NC(=O)Cn2nnc3sc4c(c3c2=O)CCCC4)cc1 | inactive: 67%
92 | O=C(NCc1cccs1)c1ccc(Cn2c(SCc3cccc(F)c3)nc3cccnc32)cc1 | inactive: 58%
